Source: paper PMC11329725 (Nature Communications, 2024)

T1: His6-HDOB1 (human BRCA2 helical domain and OB fold 1, residues 2479-2807) (human, UniProt P51587 2479-2807)
T1 sequence: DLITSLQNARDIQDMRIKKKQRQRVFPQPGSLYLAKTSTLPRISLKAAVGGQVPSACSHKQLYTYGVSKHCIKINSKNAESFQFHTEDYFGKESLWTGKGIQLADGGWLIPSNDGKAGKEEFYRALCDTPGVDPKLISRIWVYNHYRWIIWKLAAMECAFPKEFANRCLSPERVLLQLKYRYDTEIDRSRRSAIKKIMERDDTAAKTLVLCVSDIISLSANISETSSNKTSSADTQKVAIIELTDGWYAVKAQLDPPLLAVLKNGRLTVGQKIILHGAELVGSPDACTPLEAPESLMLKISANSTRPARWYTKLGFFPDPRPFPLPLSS


Target: T1, His6-HDOB1 (human BRCA2 helical domain …)
Assay: pull-down

Binder	binding result
GST-DSS1 […], co-expressed with His6-HDOB1 in E. coli (domain or fragment) not shown	binds
GST-DSS1 R57Q, co-expressed with His6-HDOB1 in E. coli (natural protein) not shown	binds
